Reference: the supplement of paper PMC8728848
The list shows a part of the results.

Key:
Experiment in all cases: glycan array binding signal (z-score within array); higher = stronger binding
Settings in all cases: glycan notation: IUPAC condensed, linker removed
[1] = target: Gal(b1-4)GlcNAc(b1-3)Gal(b1-4)GlcNAc(b1-6)[Gal(b1-3)]GalNAc
How it was run: (§1)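 Negative Z-scores can be read as non-binding. The Z-score is calculated within each array and then averaged across arrays of one protein sequence at different concentrations or buffers and across linkers. Arrays, 3228 in all, were curated from the Consortium for Functional Glycomics database and kept only where the protein sequence was available.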

[2] = target: Gal(b1-4)GlcNAc(b1-3)Gal(b1-4)[Fuc(a1-3)]GlcNAc(b1-3)Gal(b1-4)[Fuc(a1-3)]GlcNAc
How it was run: as §1

[3] = target: Gal(b1-4)GlcNAc(b1-3)GalNAc
How it was run: as §1

[4] = target: Gal(b1-4)GlcNAc(b1-3)[Fuc(a1-3)GlcNAc(b1-6)]Gal(b1-4)Glc
How it was run: as §1

[5] = target: Gal(b1-4)GlcNAc(b1-3)[Gal(b1-4)GlcNAc(b1-6)]Gal(b1-4)GlcNAc
How it was run: as §1

[6] = target: Gal(b1-4)GlcNAc(b1-3)[GlcNAc(b1-6)]Gal(b1-4)GlcNAc
How it was run: as §1

[7] = target: Gal(b1-4)GlcNAc(b1-6)Gal(b1-4)GlcNAc
How it was run: as §1

[8] = target: Gal(b1-4)GlcNAc(b1-6)GalNAc
How it was run: as §1

[9] = target: Gal(b1-4)GlcNAc(b1-6)[Gal(b1-3)]GalNAc
How it was run: as §1

[10] = target: Gal(b1-4)GlcNAc(b1-6)[Gal(b1-4)GlcNAc(b1-3)]GalNAc
How it was run: as §1

[11] = target: Gal(b1-4)GlcNAc6P
How it was run: as §1

[12] = target: Gal(b1-6)Gal
How it was run: as §1

[13] = target: Gal3S(b1-3)GalNAc
How it was run: as §1

[14] = target: Gal3S(b1-3)GlcNAc
How it was run: as §1

[15] = target: Gal3S(b1-3)[Fuc(a1-4)]GlcNAc
How it was run: as §1

[16] = target: Gal3S(b1-4)Glc
How it was run: as §1

[17] = target: Gal3S(b1-4)Glc6S
How it was run: as §1

[18] = target: Gal3S(b1-4)GlcNAc
How it was run: as §1

[19] = target: Gal3S(b1-4)[Fuc(a1-3)]Glc6S
How it was run: as §1

[20] = target: Gal3S(b1-4)[Fuc(a1-3)]GlcNAc
How it was run: as §1

[21] = target: Gal3S(b1-4)[Fuc(a1-3)]GlcNAc6S
How it was run: as §1

[22] = target: Gal3S4S(b1-4)GlcNAc
How it was run: as §1

[23] = target: Gal3S6S(b1-4)GlcNAc
How it was run: as §1

[24] = target: Gal3S6S(b1-4)GlcNAc6S
How it was run: as §1

[25] = target: Gal4S(b1-4)GlcNAc
How it was run: as §1

[26] = target: Gal4S6S(b1-4)GlcNAc
How it was run: as §1

[27] = target: Gal6P(b1-4)GlcNAc
How it was run: as §1

[28] = target: Gal6S(b1-3)GlcNAc
How it was run: as §1

[29] = target: Gal6S(b1-3)GlcNAc6S
How it was run: as §1

[30] = target: Gal6S(b1-4)Glc
How it was run: as §1

[31] = target: Gal6S(b1-4)Glc6S
How it was run: as §1

[32] = target: Gal6S(b1-4)GlcNAc
How it was run: as §1

[33] = target: Gal6S(b1-4)GlcNAc6S
How it was run: as §1

[34] = target: GalNAc(a1-3)Gal
How it was run: as §1

[35] = target: GalNAc(a1-3)GalNAc
How it was run: as §1

[36] = target: GalNAc(a1-3)GalNAc(b1-3)Gal(a1-4)Gal(b1-4)Glc
How it was run: as §1

[37] = target: GalNAc(a1-3)GalNAc(b1-3)Gal(a1-4)Gal(b1-4)GlcNAc
How it was run: as §1

[38] = target: GalNAc(b1-3)Gal
How it was run: as §1

[39] = target: GalNAc(b1-3)Gal(a1-4)Gal(b1-4)GlcNAc
How it was run: as §1

[40] = target: GalNAc(b1-3)Gal(a1-4)Gal(b1-4)GlcNAc(b1-3)Gal(b1-4)Glc
How it was run: as §1

[41] = target: GalNAc(b1-3)Gal(a1-6)Gal(b1-4)Glc
How it was run: as §1

[42] = target: GalNAc(b1-3)GalNAc
How it was run: as §1

[43] = target: GalNAc(b1-3)GlcNAc
How it was run: as §1

[44] = target: GalNAc(b1-4)Gal(b1-4)Glc
How it was run: as §1

[45] = target: GalNAc(b1-4)GlcNAc
How it was run: as §1

[46] = target: GalNAc(b1-4)GlcNAc(b1-2)Man
How it was run: as §1

[47] = target: GalNAc(b1-4)GlcNAc(b1-2)Man(a1-3)[GalNAc(b1-4)GlcNAc(b1-2)Man(a1-6)]Man(b1-4)GlcNAc(b1-4)GlcNAc
How it was run: as §1

[48] = target: GalNAc(b1-4)GlcNAc(b1-3)GalNAc(b1-4)GlcNAc
How it was run: as §1

[49] = target: GalNAc(b1-4)GlcNAc6S
How it was run: as §1

[50] = target: GalNAc(b1-6)GalNAc
How it was run: as §1

[51] = target: GalNAc3S(b1-4)GlcNAc
How it was run: as §1

[52] = target: GalNAc3S(b1-4)GlcNAc3S
How it was run: as §1

[53] = target: GalNAc3S(b1-4)[Fuc(a1-3)]GlcNAc
How it was run: as §1

[54] = target: GalNAc4S6S(b1-4)GlcNAc
How it was run: as §1

[55] = target: GalNAc6S(b1-4)GlcNAc
How it was run: as §1

[56] = target: Glc(a1-4)Glc
How it was run: as §1

[57] = target: Glc(a1-4)Glc(a1-4)Glc(a1-4)Glc
How it was run: as §1

[58] = target: Glc(a1-6)Glc(a1-6)Glc
How it was run: as §1

[59] = target: Glc(a1-6)Glc(a1-6)Glc(a1-6)Glc
How it was run: as §1

[60] = target: Glc(b1-4)Glc
How it was run: as §1

[61] = target: Glc(b1-6)Glc
How it was run: as §1

[62] = target: GlcA(b1-3)Gal
How it was run: as §1

[63] = target: GlcA(b1-3)GlcNAc
How it was run: as §1

[64] = target: GlcA(b1-6)Gal
How it was run: as §1

[65] = target: GlcA3S(b1-3)Gal(b1-4)GlcNAc(b1-2)Man
How it was run: as §1

[66] = target: GlcA3S(b1-3)Gal(b1-4)GlcNAc(b1-3)Gal(b1-4)Glc
How it was run: as §1

[67] = target: GlcNAc(a1-3)Gal(b1-4)GlcNAc
How it was run: as §1

[68] = target: GlcNAc(a1-4)Gal(b1-3)GlcNAc
How it was run: as §1

[69] = target: GlcNAc(a1-4)Gal(b1-4)GalNAc
How it was run: as §1

[70] = target: GlcNAc(a1-4)Gal(b1-4)GlcNAc
How it was run: as §1

[71] = target: GlcNAc(a1-4)Gal(b1-4)GlcNAc(b1-3)Gal(b1-4)Glc
How it was run: as §1

[72] = target: GlcNAc(a1-4)Gal(b1-4)GlcNAc(b1-3)Gal(b1-4)GlcNAc
How it was run: as §1

[73] = target: GlcNAc(a1-4)Gal(b1-4)GlcNAc(b1-3)Gal(b1-4)GlcNAc(b1-3)Gal(b1-4)GlcNAc
How it was run: as §1

[74] = target: GlcNAc(a1-4)Gal(b1-4)GlcNAc(b1-3)Gal(b1-4)[Fuc(a1-3)]GlcNAc(b1-3)Gal(b1-4)[Fuc(a1-3)]GlcNAc
How it was run: as §1

[75] = target: GlcNAc(a1-6)Gal(b1-4)GlcNAc
How it was run: as §1

B1: B1257 (Bifidobacterium sp) (protein)
chain: MKKSIRLVAAIAALAMTAGISACGSSTNGNQAKSDVTAQDVETALTDTSKNVELTVWAYSAKQMEPTVKAFEKKYPHIKINFVNTGAAGDHFTKFQNVVQAQKDIPDVVQMGANKFQQFAVSGALLNFANDSIEKAWSKLYTKTAWAQVHYAGGLYGAPQDATPLANYVRKDILDEHNLQVPESWEDIYNEGIKLHKEDSNKYMGILGSDISFFTNLYRSVGARLWKVNSVDDVELTMNSGKAKEFTEFLQKCLKDGVLEGGTVFTDEFNRSINDGRYATFINENWMGNTYKEQNPSLKGKMVVAAPPSWKGQPYQSSSVGSMMSVSAACPKEKQAAALAFINWLDSDKDAIQSWQDTNNGNFFMAASVYQDDENQRNKKETDGYYANDDVNAVYFDSMDKVNTDWEYLPFMSQVEVVFNDVIVPQMNENGDLVGAMAKAQQELKTYAKDNGFKVTTDAD
- glycan array binding signal (z-score) [1]: 0.111
- glycan array binding signal (z-score) [2]: -0.061
- glycan array binding signal (z-score) [3]: -0.132
- glycan array binding signal (z-score) [4]: -0.172
- glycan array binding signal (z-score) [5]: 0.039
- glycan array binding signal (z-score) [6]: -0.215
- glycan array binding signal (z-score) [7]: -0.096
- glycan array binding signal (z-score) [8]: -0.038
- glycan array binding signal (z-score) [9]: 0.02
- glycan array binding signal (z-score) [10]: -0.012
- glycan array binding signal (z-score) [11]: -0.145
- glycan array binding signal (z-score) [12]: -0.066
- glycan array binding signal (z-score) [13]: -0.071
- glycan array binding signal (z-score) [14]: -0.06
- glycan array binding signal (z-score) [15]: 0.023
- glycan array binding signal (z-score) [16]: 0.004
- glycan array binding signal (z-score) [17]: -0.073
- glycan array binding signal (z-score) [18]: -0.091
- glycan array binding signal (z-score) [19]: 0.213
- glycan array binding signal (z-score) [20]: -0.05
- glycan array binding signal (z-score) [21]: -0.09
- glycan array binding signal (z-score) [22]: 0.083
- glycan array binding signal (z-score) [23]: -0.005
- glycan array binding signal (z-score) [24]: -0.09
- glycan array binding signal (z-score) [25]: -0.165
- glycan array binding signal (z-score) [26]: -0.216
- glycan array binding signal (z-score) [27]: -0.017
- glycan array binding signal (z-score) [28]: -0.061
- glycan array binding signal (z-score) [29]: -0.051
- glycan array binding signal (z-score) [30]: -0.065
- glycan array binding signal (z-score) [31]: -0.015
- glycan array binding signal (z-score) [32]: -0.16
- glycan array binding signal (z-score) [33]: -0.133
- glycan array binding signal (z-score) [34]: 0.019
- glycan array binding signal (z-score) [35]: -0.155
- glycan array binding signal (z-score) [36]: -0.048
- glycan array binding signal (z-score) [37]: -0.089
- glycan array binding signal (z-score) [38]: -0.047
- glycan array binding signal (z-score) [39]: -0.087
- glycan array binding signal (z-score) [40]: -0.065
- glycan array binding signal (z-score) [41]: -0.117
- glycan array binding signal (z-score) [42]: -0.091
- glycan array binding signal (z-score) [43]: -0.223
- glycan array binding signal (z-score) [44]: -0.111
- glycan array binding signal (z-score) [45]: -0.065
- glycan array binding signal (z-score) [46]: -0.154
- glycan array binding signal (z-score) [47]: 1.83
- glycan array binding signal (z-score) [48]: -0.085
- glycan array binding signal (z-score) [49]: -0.041
- glycan array binding signal (z-score) [50]: -0.048
- glycan array binding signal (z-score) [51]: -0.145
- glycan array binding signal (z-score) [52]: -0.117
- glycan array binding signal (z-score) [53]: -0.063
- glycan array binding signal (z-score) [54]: -0.106
- glycan array binding signal (z-score) [55]: -0.132
- glycan array binding signal (z-score) [56]: -0.017
- glycan array binding signal (z-score) [57]: -0.138
- glycan array binding signal (z-score) [58]: 0.008
- glycan array binding signal (z-score) [59]: -0.037
- glycan array binding signal (z-score) [60]: -0.13
- glycan array binding signal (z-score) [61]: -0.121
- glycan array binding signal (z-score) [62]: -0.093
- glycan array binding signal (z-score) [63]: 0.076
- glycan array binding signal (z-score) [64]: -0.003
- glycan array binding signal (z-score) [65]: -0.041
- glycan array binding signal (z-score) [66]: -0.125
- glycan array binding signal (z-score) [67]: 0.086
- glycan array binding signal (z-score) [68]: -0.103
- glycan array binding signal (z-score) [69]: -0.106
- glycan array binding signal (z-score) [70]: -0.155
- glycan array binding signal (z-score) [71]: -0.254
- glycan array binding signal (z-score) [72]: -0.007
- glycan array binding signal (z-score) [73]: -0.063
- glycan array binding signal (z-score) [74]: 0.11
- glycan array binding signal (z-score) [75]: -0.043
